# Laboratory results taken from the supplement of paper PMC7826260.
# The other results are listed elsewhere or left out. The data describe in vitro nicking of single-stranded DNA by Rep domains (3 µM enzyme, 1 h, 37 °C); shown is the middle of each 90-letter strand. Uncut reads are compared with the no-enzyme pool on a log2 scale; uncut sequences lie near 0, cut ones below; no hit call is given. The scaling is to total reads; values above 0 arise when much of the pool is cut.
# System: T1, Rep nickase domain of faba bean necrotic yellows virus
# T1 sequence (residues 1-98, tag not shown): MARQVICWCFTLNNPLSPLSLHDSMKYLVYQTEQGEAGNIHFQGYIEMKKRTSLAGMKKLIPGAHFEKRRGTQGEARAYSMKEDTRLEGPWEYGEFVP
# Test: uncleaved DNA left, log2 of reads against the no-enzyme library (log2 ratio); higher = less cleavage (more negative = more Rep cleavage of the k-mer); sequences stand for … in CTCGTCCG…ACCGGAGA
# Description: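 A pool of 90-nt single-stranded DNAs with seven random bases just before the constant AC of the nick site (name = the seven bases) was cut by 3 µM recombinant His6-SUMO-tagged Rep nickase domain (300 nM DNA, 50 mM HEPES pH 8.0, 50 mM NaCl, 1 mM MnCl2, 1 h, 37 °C, three replicates). Uncut DNA was amplified and sequenced.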
row,Sequence,uncleaved DNA left (log2)
1,CCGCCTG,0.0566
2,ATGCTCA,-0.0185
3,GTCCACA,-0.185
4,CTGTGCT,-0.0778
5,ATAAAGT,-0.024
6,GCGTATG,0.202
7,ATCCGAA,-0.0895
8,TACAAGA,0.0427
9,CGCCAAC,0.0572
10,CCGTTAT,-0.0406
11,TAGTAGC,-0.0422
12,GTCGGGC,-0.0507
13,CCATGCT,-0.133
14,TGGCATC,0.0515
15,CTTGTGT,0.128
16,CACTCGT,-0.183
17,GTGTGAG,0.0955
18,CTTCGGG,-0.00462
19,GGACTAT,0.0431
20,ATAACGG,-0.105

row,Sequence,uncleaved DNA left (log2)
1,TAGCGTT,-0.17
2,GTTGTTG,-0.023
3,TTAACAG,0.0546
4,AGTGGGC,0.0324
5,GCCAGAC,-0.0815
6,ACACGCG,0.14
7,GTATGTT,-0.107
8,ACTCCCA,0.0209
9,GACTCTC,-0.088
10,AAGAGGG,0.00909
11,CCTAACC,-0.101
12,TATGTCA,-0.00604
13,AGGAAGG,-0.0229
14,TGTATGG,0.00449
15,CGTTTTT,-0.00234
16,CCGCGGA,-0.135
17,TCTCAAA,-0.031
18,CCGGACT,-0.12
19,CCTTTAA,-0.0832
20,GCTAGGA,0.0195
